Data: patent publication US11718592B2, “Oxadiazole derivative” (Sumitomo Pharma Co., Ltd., priority 2020, dated 2023)
At least one read-out could not be matched to a standard name with certainty.

Tested on: ddY male mice
Assay: Test with model produced by subcutaneous injection of pentetrazol (minimum convulsion model, scPTZ)
Assay type: in vivo
Details: pentetrazol 85 mg/kg s.c. after an hour, observed 30 minutes
Procedure: In order to evaluate an antiepileptic drug, in general, a model produced by subcutaneous injection of pentetrazol (minimum convulsion model, scPTZ) is used, which has high clinical predictability. […] In this test, an animal model which expresses generalized absence seizure or myoclonic seizure was used. Test compounds were orally administered to Sic: ddY male mice (purchased from Japan SLC, Inc., 5 mice in each group, body weight 20-30 g). After an hour, pentetrazol (85 mg/kg) was subcutaneously administered. […] To control mice, 0.5% methylcellulose solution was administered, and the same test was done. The results are represented as the number of mice with no convulsion, per 5 mice. The present test was deemed to succeed when 4 mice among 5 mice in the control group developed convulsions.

Compound: CN1C(=O)CC[C@H]1c1nc(-c2ccc(F)cc2)no1 (single isomer, unassigned) [Example 31]
- number of mice with no convulsion, per 5 mice (oral 25 mg/kg): 3
- number of mice with no convulsion, per 5 mice (oral 50 mg/kg): 5
- number of mice with no convulsion, per 5 mice (oral 100 mg/kg): 5

Compound: CN1C(=O)CCC1c1nc(-c2ccc(F)cc2)no1 (stereo not drawn) [Example 25, 5-[3-(4-Fluorophenyl)-1,2,4-oxadiazol-5-yl]-1-methylpyrrolidin-2-one]
- number of mice with no convulsion, per 5 mice (oral 25 mg/kg): 4
- number of mice with no convulsion, per 5 mice (oral 50 mg/kg): 5

Compound: CC(C)(C(N)=O)c1noc(-c2ccc(F)cc2)n1 [Example 12, 2-[5-(4-fluorophenyl)-1,2,4-oxadiazol-3-yl]-2-methylpropanamide]
- number of mice with no convulsion, per 5 mice (oral 25 mg/kg): 1
- number of mice with no convulsion, per 5 mice (oral 50 mg/kg): 3
- number of mice with no convulsion, per 5 mice (oral 100 mg/kg): 5

Compound: CC(C)(c1nnc(-c2ccc(Br)cc2)o1)S(N)(=O)=O [Example 24, 2-[5-(4-bromophenyl)-1,3,4-oxadiazol-2-yl]propane-2-sulfonamide]
- number of mice with no convulsion, per 5 mice (oral 25 mg/kg): 0
- number of mice with no convulsion, per 5 mice (oral 50 mg/kg): 3
- number of mice with no convulsion, per 5 mice (oral 100 mg/kg): 5

Compound: CC(C)(c1nc(-c2ccc(Br)cc2)no1)S(N)(=O)=O [Example 19, 2-[3-(4-bromophenyl)-1,2,4-oxadiazol-5-yl]propane-2-sulfonamide]
- number of mice with no convulsion, per 5 mice (oral 25 mg/kg): 2
- number of mice with no convulsion, per 5 mice (oral 50 mg/kg): 2
- number of mice with no convulsion, per 5 mice (oral 100 mg/kg): 4

Compound: CC(C)(C(N)=O)c1nc(-c2ccc(Cl)cc2)no1 [Example 2, 2-[3-(4-chlorophenyl)-1,2,4-oxadiazol-5-yl]-2-methylpropanamide]
- number of mice with no convulsion, per 5 mice (oral 25 mg/kg): 2
- number of mice with no convulsion, per 5 mice (oral 50 mg/kg): 3
- number of mice with no convulsion, per 5 mice (oral 100 mg/kg): 5

Compound: CC(C)(c1noc(-c2ccc(Cl)cc2)n1)S(N)(=O)=O [Example 20, 2-[5-(4-chlorophenyl)-1,2,4-oxadiazol-3-yl]propane-2-sulfonamide]
- number of mice with no convulsion, per 5 mice (oral 25 mg/kg): 1
- number of mice with no convulsion, per 5 mice (oral 50 mg/kg): 3
- number of mice with no convulsion, per 5 mice (oral 100 mg/kg): 5

Compound: NC(=O)C1(c2nc(-c3ccc(Cl)cc3)no2)CCC1 [Example 8, 1-[3-(4-chlorophenyl)-1,2,4-oxadiazol-5-yl]cyclobutane-1-carboxamide]
- number of mice with no convulsion, per 5 mice (oral 25 mg/kg): 0
- number of mice with no convulsion, per 5 mice (oral 50 mg/kg): 2
- number of mice with no convulsion, per 5 mice (oral 100 mg/kg): 5

Compound: CC(C)(C(N)=O)c1nc(-c2ccc(Br)cc2)no1 [Example 3, 2-[3-(4-bromophenyl)-1,2,4-oxadiazol-5-yl]-2-methylpropanamide]
- number of mice with no convulsion, per 5 mice (oral 25 mg/kg): 2
- number of mice with no convulsion, per 5 mice (oral 50 mg/kg): 3
- number of mice with no convulsion, per 5 mice (oral 100 mg/kg): 5

Compound: CCC(CC)(C(N)=O)c1nc(-c2ccc(Cl)cc2)no1 [Example 11, 2-[3-(4-chlorophenyl)-1,2,4-oxadiazol-5-yl]-2-ethylbutanamide]
- number of mice with no convulsion, per 5 mice (oral 25 mg/kg): 3
- number of mice with no convulsion, per 5 mice (oral 50 mg/kg): 1
- number of mice with no convulsion, per 5 mice (oral 100 mg/kg): 4

Compound: CC(C)(C(N)=O)c1nc(-c2ccc(F)cc2)no1 [Example 1, 2-[3-(4-Fluorophenyl)-1,2,4-oxadiazol-5-yl]-2-methylpropanamide]
- number of mice with no convulsion, per 5 mice (oral 25 mg/kg): 2
- number of mice with no convulsion, per 5 mice (oral 50 mg/kg): 2
- number of mice with no convulsion, per 5 mice (oral 100 mg/kg): 4

Compound: NC(=O)C1(c2nc(-c3ccc(F)cc3)no2)CC1 [Example 4, 1-[3-(4-fluorophenyl)-1,2,4-oxadiazol-5-yl]cyclopropane-1-carboxamide]
- number of mice with no convulsion, per 5 mice (oral 25 mg/kg): 2
- number of mice with no convulsion, per 5 mice (oral 50 mg/kg): 4
- number of mice with no convulsion, per 5 mice (oral 100 mg/kg): 5

Compound: CC(C)(C(N)=O)c1nnc(-c2ccc(Cl)cc2)o1 [Example 15, 2-[5-(4-chlorophenyl)-1,3,4-oxadiazol-2-yl]-2-methylpropanamide]
- number of mice with no convulsion, per 5 mice (oral 25 mg/kg): 1
- number of mice with no convulsion, per 5 mice (oral 50 mg/kg): 3
- number of mice with no convulsion, per 5 mice (oral 100 mg/kg): 5

Compound: CC(C)(C(N)=O)c1noc(-c2ccc(Br)cc2)n1 [Example 14, 2-[5-(4-bromophenyl)-1,2,4-oxadiazol-3-yl]-2-methylpropanamide]
- number of mice with no convulsion, per 5 mice (oral 25 mg/kg): 2
- number of mice with no convulsion, per 5 mice (oral 50 mg/kg): 5
- number of mice with no convulsion, per 5 mice (oral 100 mg/kg): 5

Compound: NC(=O)C1(c2nc(-c3ccc(Cl)cc3)no2)CC(F)C1 (stereo not drawn) [Example 6, 1-[3-(4-chlorophenyl)-1,2,4-oxadiazol-5-yl]-3-fluorocyclobutane-1-carboxamide]
- number of mice with no convulsion, per 5 mice (oral 25 mg/kg): 1
- number of mice with no convulsion, per 5 mice (oral 50 mg/kg): 2
- number of mice with no convulsion, per 5 mice (oral 100 mg/kg): 5

Compound: NC(=O)C1(c2nc(-c3ccc(Cl)cc3)no2)CC(F)(F)C1 [Example 7, 1-[3-(4-chlorophenyl)-1,2,4-oxadiazol-5-yl]-3,3-difluorocyclobutane-1-carboxamide]
- number of mice with no convulsion, per 5 mice (oral 100 mg/kg): 4

Compound: NC(=O)C1(c2nc(-c3ccc(Cl)cc3)no2)CCCC1 [Example 9, 1-[3-(4-chlorophenyl)-1,2,4-oxadiazol-5-yl]cyclopentane-1-carboxamide]
- number of mice with no convulsion, per 5 mice (oral 100 mg/kg): 5

Compound: CC(C)(c1nc(-c2ccc(Cl)cc2)no1)S(N)(=O)=O [Example 18, 2-[3-(4-chlorophenyl)-1,2,4-oxadiazol-5-yl]propane-2-sulfonamide]
- number of mice with no convulsion, per 5 mice (oral 25 mg/kg): 2
- number of mice with no convulsion, per 5 mice (oral 50 mg/kg): 3
- number of mice with no convulsion, per 5 mice (oral 100 mg/kg): 5

Compound: CC(C)(c1noc(-c2ccc(Br)cc2)n1)S(N)(=O)=O [Example 21, 2-[5-(4-bromophenyl)-1,2,4-oxadiazol-3-yl]propane-2-sulfonamide]
- number of mice with no convulsion, per 5 mice (oral 100 mg/kg): 3

Compound: NC(=O)C1(c2nc(-c3ccc(Cl)cc3)no2)CC1 [Example 5, 1-[3-(4-chlorophenyl)-1,2,4-oxadiazol-5-yl]cyclopropane-1-carboxamide]
- number of mice with no convulsion, per 5 mice (oral 25 mg/kg): 1
- number of mice with no convulsion, per 5 mice (oral 50 mg/kg): 1
- number of mice with no convulsion, per 5 mice (oral 100 mg/kg): 4

Compound: CC(C)(C(N)=O)c1noc(-c2ccc(Cl)cc2)n1 [Example 13, 2-[5-(4-chlorophenyl)-1,2,4-oxadiazol-3-yl]-2-methylpropanamide]
- number of mice with no convulsion, per 5 mice (oral 25 mg/kg): 2
- number of mice with no convulsion, per 5 mice (oral 50 mg/kg): 4
- number of mice with no convulsion, per 5 mice (oral 100 mg/kg): 5

Compound: NC(=O)C1(c2nc(-c3ccc(F)cc3)no2)CCOCC1 [Example 10, 4-[3-(4-fluorophenyl)-1,2,4-oxadiazol-5-yl]tetrahydro-2H-pyran-4-carboxamide]
- number of mice with no convulsion, per 5 mice (oral 100 mg/kg): 3

Compound: CC(C)(c1nc(-c2ccc(F)cc2)no1)S(N)(=O)=O [Example 17, 2-[3-(4-Fluorophenyl)-1,2,4-oxadiazol-5-yl]propane-2-sulfonamide]
- number of mice with no convulsion, per 5 mice (oral 25 mg/kg): 0
- number of mice with no convulsion, per 5 mice (oral 50 mg/kg): 4
- number of mice with no convulsion, per 5 mice (oral 100 mg/kg): 4

Compound: CC(C)(c1nnc(-c2ccc(F)cc2)o1)S(N)(=O)=O [Example 22, 2-[5-(4-fluorophenyl)-1,3,4-oxadiazol-2-yl]propane-2-sulfonamide]
- number of mice with no convulsion, per 5 mice (oral 100 mg/kg): 3

Compound: CN1C(=O)CCC1c1nc(-c2ccc(Cl)cc2)no1 (stereo not drawn) [Example 29, 5-[3-(4-chlorophenyl)-1,2,4-oxadiazol-5-yl]-1-methylpyrrolidin-2-one]
- number of mice with no convulsion, per 5 mice (oral 25 mg/kg): 2
- number of mice with no convulsion, per 5 mice (oral 50 mg/kg): 4

Compound: CN1C(=O)CCC1c1nc(-c2ccc(F)c(F)c2)no1 (stereo not drawn) [Example 27, 5-[3-(3,4-difluorophenyl)-1,2,4-oxadiazol-5-yl]-1-methylpyrrolidin-2-one]
- number of mice with no convulsion, per 5 mice (oral 25 mg/kg): 2
- number of mice with no convulsion, per 5 mice (oral 50 mg/kg): 5

Compound: CC(C)(c1nnc(-c2ccc(Cl)cc2)o1)S(N)(=O)=O [Example 23, 2-[5-(4-chlorophenyl)-1,3,4-oxadiazol-2-yl]propane-2-sulfonamide]
- number of mice with no convulsion, per 5 mice (oral 100 mg/kg): 2

Compound: CN1C(=O)CCC1c1nc(-c2ccc(F)cc2)no1 (single isomer, unassigned) [Example 32]
- number of mice with no convulsion, per 5 mice (oral 25 mg/kg): 1
- number of mice with no convulsion, per 5 mice (oral 50 mg/kg): 5
- number of mice with no convulsion, per 5 mice (oral 100 mg/kg): 5

Compound: CC(C)(C(N)=O)c1nnc(-c2ccc(Br)cc2)o1 [Example 16, 2-[5-(4-bromophenyl)-1,3,4-oxadiazol-2-yl]-2-methylpropanamide]
- number of mice with no convulsion, per 5 mice (oral 25 mg/kg): 3
- number of mice with no convulsion, per 5 mice (oral 50 mg/kg): 2
- number of mice with no convulsion, per 5 mice (oral 100 mg/kg): 5

Compound: CN1C(=O)CCC1(C)c1nc(-c2ccc(F)cc2)no1 (stereo not drawn) [Example 28, 5-[3-(4-fluorophenyl)-1,2,4-oxadiazol-5-yl]-1,5-dimethylpyrrolidin-2-one]
- number of mice with no convulsion, per 5 mice (oral 25 mg/kg): 3
- number of mice with no convulsion, per 5 mice (oral 50 mg/kg): 5

Compound: CN1C(=O)CCC1c1nc(-c2ccc(F)cc2F)no1 (stereo not drawn) [Example 26, 5-[3-(2,4-difluorophenyl)-1,2,4-oxadiazol-5-yl]-1-methylpyrrolidin-2-one]
- number of mice with no convulsion, per 5 mice (oral 25 mg/kg): 2
- number of mice with no convulsion, per 5 mice (oral 50 mg/kg): 2

Compound: CN1C(=O)CCC1c1nc(-c2ccc(Br)cc2)no1 (stereo not drawn) [Example 30, 5-[3-(4-bromophenyl)-1,2,4-oxadiazol-5-yl]-1-methylpyrrolidin-2-one]
- number of mice with no convulsion, per 5 mice (oral 25 mg/kg): 3
- number of mice with no convulsion, per 5 mice (oral 50 mg/kg): 3
